According to the supplement of paper PMC8183993:
Where “and” joins values, the source holds several entries; their conditions need not be identical. Equal entries are not always repeated. Structures can show the parent of a compound that is named as a salt. ± gives the standard deviation of the averaged measurements. Over roughly 3,200 compounds, “nuclei count (viability) relative to DMSO” has its median near 99; the lowest 2% begin near 16. This is one part of the list.

test system: U2OS; assay: nuclei count (viability) relative to DMSO (% of DMSO); higher = more viable cells; conditions: 10 µM; 24 h
Procedure: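 Primary image-based screen in U2OS cells: compounds at 10 uM for 24 h, then a 1 h o-propargyl-puromycin (OPP) pulse, click labelling, and high-throughput microscopy. Mean cytoplasmic OPP intensity and nuclei count were normalised to DMSO wells within each plate (DMSO = 100) and averaged over triplicate plates.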

SMILES	nuclei count
CN[C@@H]1[C@H](O[C@H]2[C@H](O[C@H]3[C@H](O)[C@@H](O)[C@H](NC(=N)N)[C@@H](O)[C@@H]3NC(=N)N)O[C@@H](C)[C@]2(O)CO)O[C@@H](CO)[C@H](O)[C@H]1O [Dihydrostreptomycin sulfate]	99.9
CCN(CCCOc1ccc2c(Nc3cc(CC(=O)Nc4cccc(F)c4)[nH]n3)ncnc2c1)CCOP(=O)(O)O [Barasertib (AZD1152-HQPA)]	55.1
O=c1[nH]nc(Sc2ncc([N+](=O)[O-])s2)n1-c1ccc2c(c1)OCCO2	6.42 ± 2.8
Cc1ccccc1N=Nc1ccc(NC(=O)c2ccnn2C)c(C)c1	110
NC(N)=NCCC[C@H](NC(=O)[C@@H]1CCCN1C(=O)[C@H](N)Cc1ccccc1)C(=O)CCl	96.4
CCN1CCC[C@H]1CNC(=O)c1c(O)c(Cl)cc(Cl)c1OC [Raclopride]	99.1 ± 4.2
CC[C@@H]([C@H](C)O)n1ncn(-c2ccc(N3CCN(c4ccc(OC[C@@H]5CO[C@@](Cn6cncn6)(c6ccc(F)cc6F)C5)cc4)CC3)cc2)c1=O [Posaconazole]	93.3
COC(=O)[C@]12CCC(C)(C)C[C@H]1[C@H]1C(=O)C=C3[C@@]4(C)C=C(C#N)C(=O)C(C)(C)[C@@H]4CC[C@@]3(C)[C@]1(C)CC2 [Bardoxolone Methyl]	4.35
CCCCC[C@H](O)/C=C/[C@H]1[C@H](O)CC(=O)[C@@H]1CCCCCCC(=O)O [Alprostadil (Caverject)]	94.3
CCCCC[C@H](O)/C=C/[C@H]1[C@H](O)CC(=O)[C@@H]1CCCCCCC(=O)O [Alprostadil]	104 ± 2.1
O=C(O)c1cccnc1C(=O)O [Quinolinic acid]	102
CC(C(=O)O)c1ccc(C(=O)c2cccs2)cc1 (stereo unspecified) [Suprofen]	108
CN1CCN(c2nc(C3=C(c4c[nH]c5ccccc45)C(=O)NC3=O)c3ccccc3n2)CC1 [Sotrastaurin (AEB071)]	95.2 ± 3.4
COc1cc2ncnc(Nc3ccc(F)c(Cl)c3)c2cc1OCCCN1CCOCC1 [Gefitinib]	99.8
COc1cc2ncnc(Nc3ccc(F)c(Cl)c3)c2cc1OCCCN1CCOCC1 [Iressa]	100
COc1cc2ncnc(Nc3ccc(F)c(Cl)c3)c2cc1OCCCN1CCOCC1 [Gefitinib (Iressa)]	89.9
CCOc1ccc(NC(C)=O)cc1 [Phenacetin]	109
CN1CCC[C@@H]1CCO[C@](C)(c1ccccc1)c1ccc(Cl)cc1 [Clemastine fumarate]	92.9 ± 9.9
[O-][S+](c1ccccc1)c1ccc2nnnn2n1 (stereo unspecified)	32.8
O=C(c1ccc(OCCCc2c[nH]cn2)cc1)C1CC1 [Ciproxifan]	103
CN1CCN(c2c(F)cc3c(=O)c(C(=O)O)cn4c3c2SCC4)CC1 [Rufloxacin]	113
CC(=O)N1CCN(C)CC1 [1-Acetyl-4-methylpiperazine hydrochloride]	97.8
COc1ccc(C2CC(c3ccccc3)=NN2c2ccc(S(N)(=O)=O)cc2)cc1 (stereo unspecified)	97
CCCC(=O)[O-].[Na+] [Sodium butyrate]	89.2
Cc1cc(Nc2cc(N3CCN(C)CC3)nc(/C=C/c3ccccc3)n2)n[nH]1	31.8
COCCOc1ccc2c(c1)ncn2-c1ccc2cccc(N3CCC(N)CC3)c2n1	42.8 ± 3.7

SMILES	nuclei count
COC(=O)C1=C(C)NC(C)=C(C(=O)OCCN(C)Cc2ccccc2)C1c1cccc([N+](=O)[O-])c1 (stereo unspecified) [Nicardipine hydrochloride]	109
OC[C@H]1O[C@@H](c2ccc(Cl)c(Cc3ccc(O[C@H]4CCOC4)cc3)c2)[C@H](O)[C@@H](O)[C@@H]1O	98.1
CC1(C)CNc2cc(NC(=O)c3cccnc3NCc3ccncc3)ccc21 [Motesanib Diphosphate]	101
CC1(C)CCC(C)(C)c2cc(C(=O)Nc3ccc(C(=O)O)cc3)ccc21	106 and 105
Oc1cc(O)c(Cl)cn1 [Gimeracil]	97.3
COC(=O)C1=C(C)NC(C)=C(C(=O)OCC(C)C)C1c1ccccc1[N+](=O)[O-] (stereo unspecified) [Nisoldipine (Sular)]	86.9
COC(=O)C1=C(C)NC(C)=C(C(=O)OCC(C)C)C1c1ccccc1[N+](=O)[O-] (stereo unspecified) [Nisoldipine]	90
CCCCCCCCCCCC1=C(O)C(=O)C=C(O)C1=O [Embelin]	97.9
CN(C)CCOC(c1ccc(Cl)cc1)c1ccccn1 (stereo unspecified) [Carbinoxamine maleate salt]	104
CCCCCCCCCCCCCCCC(=O)C(F)(F)F	97.2
O=C1CCc2ccc(OCCCCN3CCN(c4cccc(Cl)c4Cl)CC3)cc2N1 [Aripiprazole]	103
NC(=O)NC1NC(=O)NC1=O (stereo unspecified) [Allantoin]	102
Nc1nc2c(ccc3ccccc32)s1	86.3
CC(C)NCC(O)c1ccc(O)c(O)c1 (single isomer, unassigned; (-)) [(-)-Isoproterenol hydrochloride]	106
O=C1C(O)=C([C@H]2CC[C@H](c3ccc(Cl)cc3)CC2)C(=O)c2ccccc21 [Atovaquone]	112
Cc1ccc(/C=C2\CNC/C(=C\c3ccc(C)cc3)C2=O)cc1	7.58
Cc1ccccc1C(OCCN(C)C)c1ccccc1 (stereo unspecified) [Orphenadrine hydrochloride]	100
CCOC(=O)C1=C(C)NC(C)=C(C(=O)OCC)C1 [Diludin]	110
CNCc1cc(-c2ccccc2F)n(S(=O)(=O)c2cccnc2)c1	98.1
CCc1cc(-c2n[nH]c(C)c2-c2ccc3c(c2)OCCO3)c(O)cc1O	86.7 ± 6.5
CN1CCC(=C2c3ccccc3CCc3sccc32)CC1 [Pizotifen malate]	103
COc1ncc(-c2ccc3nccc(-c4ccnnc4)c3c2)cc1NS(=O)(=O)c1ccc(F)cc1F	58.6
CN1CCOC(c2ccccc2)c2ccccc2C1 (stereo unspecified) [Nefopam hydrochloride]	104
CN(C)[C@@H]1C(O)=C(C(=O)NCNCCCC[C@H](N)C(=O)O)C(=O)[C@@]2(O)C(O)=C3C(=O)c4c(O)cccc4[C@@](C)(O)[C@H]3C[C@@H]12 [Lymecycline]	102
COc1ccc(NC(=O)c2ccc(-c3ccc(-c4noc(C)n4)cc3C)cc2)cc1N1CCN(C)CC1	81.6
